# Data published in the supplement of paper PMC4166925.
# ± gives the standard deviation of the averaged measurements. Whole data set: some 33,000 sequences, median “E-score (dimensionless, -0.5 to 0.5)” near -0.049, cut for the highest 2% near 0.37. The list shows a part of the results.
# Tested on: T1, PmTbr T-box DNA-binding domain (GST fusion)
# T1 sequence: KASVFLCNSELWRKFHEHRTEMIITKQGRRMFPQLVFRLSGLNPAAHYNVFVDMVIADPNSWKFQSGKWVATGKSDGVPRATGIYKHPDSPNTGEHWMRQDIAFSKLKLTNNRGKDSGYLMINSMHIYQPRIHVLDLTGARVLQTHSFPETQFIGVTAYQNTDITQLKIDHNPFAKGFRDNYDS
# Assay: PBM E-score of 8-mer (E-score (dimensionless, -0.5 to 0.5)); Tbr is Tbrain of the sea star Patiria miniata (Pm) or the sea urchin Strongylocentrotus purpuratus (Sp); higher = stronger binding preference; most listed sequences are background and not binding sites
# Conditions: the construct has about 5 more residues each side
# Method: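 Universal protein-binding microarray (Agilent AMADID 016060, 60-bp probes with a 35-bp variable region) incubated with 200 nM GST-fused Patiria miniata Tbr T-box DNA-binding domain (residues 272-466) in PBS pH 7.5. Scored for every ungapped 8-mer (given with its reverse complement) by the Universal PBM Analysis Suite as E-score (modified Wilcoxon-Mann-Whitney enrichment, range -0.5 to 0.5; >0.45 counts as bound) and Z-score of median probe intensity. Two replicate arrays (datasets 1 and 2).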
# 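Note: 200 nM protein in PBS on universal arrays averaged over duplicate arrays.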
row,Sequence,PBM E-score of 8-mer
1,GCGGTTCA,0.139 ± 0.0094
2,GCAACCTA,0.164 ± 0.079
3,CGCCGATC,-0.0804 ± 0.0053
4,TGGGACAA,-0.177 ± 0.023
5,GCCAAAAA,0.00317 ± 0.045
6,ATAAACAC,0.282 ± 0.015
7,ACGAACAG,-0.00353 ± 0.037
8,GCACCGCC,0.199 ± 0.0052
9,ACGATCTG,0.189 ± 0.015
10,AGCAGGGC,-0.334 ± 0.019
11,CGCCCTGA,0.0727 ± 0.07
12,CTGGTATC,-0.133 ± 0.075
13,GCATGAAA,-0.0616 ± 0.032
14,GATCGGTA,-0.239 ± 0.081
15,AAGACATT,-0.203 ± 0.097
16,ACATGGAG,-0.0937 ± 0.003
17,GAGCTCCA,-0.196 ± 0.058
18,ACAAGTGT,0.391 ± 0.0052
19,ATAATTAA,-0.0595 ± 0.049
20,AGCATCAC,0.156 ± 0.031
21,GAGTGGCA,0.162 ± 0.039
22,AGTCTCAA,0.112 ± 0.006

row,Sequence,PBM E-score of 8-mer
1,ACTACCTG,0.068 ± 0.035
2,GTACACAC,0.1571 ± 0.0012
3,ACAAGGCA,-0.0748 ± 0.072
4,CAGCCACG,0.163 ± 0.02
5,AAACTCTT,-0.11 ± 0.032
6,GACAAGGA,-0.0231 ± 0.00054
7,CTAGTGCC,0.0785 ± 0.032
8,GTGGCGGA,0.12 ± 0.065
9,CCTTGGAA,-0.127 ± 0.028
10,AGGATACA,-0.03 ± 0.075
11,AATCCGTC,-0.0859 ± 0.021
12,CGAAGAAG,0.0353 ± 0.021
13,GAACGGGA,-0.0661 ± 0.028
14,ACCCAAGC,-0.1565 ± 0.00039
15,AGAAATCC,-0.0401 ± 0.039
16,AGGGATTA,-0.213 ± 0.073
17,CCTGAGCA,-0.037 ± 0.096
18,ACTACCAC,0.0023 ± 0.012
19,ACCGTCGA,0.11 ± 0.014
20,ATTGAGAA,-0.00564 ± 0.042
21,GGCGTAAA,0.19 ± 0.025
22,ACCTGTCG,0.355 ± 0.035

row,Sequence,PBM E-score of 8-mer
1,CGTCGAAG,0.0448 ± 0.016
2,AGTGGTAA,0.121 ± 0.067
3,CGTCCATC,-0.237 ± 0.022
4,CGAAGATC,-0.07 ± 0.0097
5,TGACTAAA,0.066 ± 0.046
6,CTTGATGA,0.0332 ± 0.025
7,CTAAATAC,0.0475 ± 0.013
8,TGGGCCCA,-0.187 ± 0.05
9,TAACCAAA,-0.186 ± 0.017
10,AAAAGGCT,-0.0914 ± 0.05
11,ACTAGGTA,-0.23 ± 0.039
12,CCGACATA,-0.03923 ± 2.8e-05
13,AACAAGTT,0.227 ± 0.099
14,AGTGCAGA,0.0714 ± 0.017
15,AAAACCGC,0.0182 ± 0.021
16,AGTACAGC,-0.172 ± 0.062
17,ACTCCTCA,-0.0441 ± 0.00072
18,AGGTCGTA,-0.0768 ± 0.013
19,AAACTCCA,-0.112 ± 0.031
20,ATACAATC,-0.298 ± 0.031
21,ACGACTAG,0.0749 ± 0.071
22,ACGGGGCG,0.101 ± 0.052

row,Sequence,PBM E-score of 8-mer
1,CACGACGC,0.0253 ± 0.014
2,CATGGCGC,0.133 ± 0.067
3,CGCCCGCC,0.0535 ± 0.013
4,CGCATCCG,-0.017 ± 0.013
5,AGATTTGC,0.097 ± 0.045
6,ATCCATTA,-0.114 ± 0.02
7,AACGCATG,-0.00137 ± 0.057
8,ATACATCG,-0.0762 ± 0.05
9,ATCGCCAA,0.0607 ± 0.039
10,ACCATGCG,0.124 ± 0.019
11,GGGTCGCA,0.171 ± 0.019
12,ATGTCCTC,-0.16273 ± 0.00013
13,CATTGGTA,-0.0019 ± 0.016
14,CGCCTATC,0.196 ± 0.013
15,GCTCTTGA,-0.141 ± 0.043
16,CGTGTGGC,0.154 ± 0.054
17,AGTCATGG,-0.153 ± 0.083
18,ACTACCAG,-0.186 ± 0.075
19,AATAAAGT,-0.0105 ± 0.09
20,AGAGAATG,-0.177 ± 0.036
